Data: paper PMC6155330

Target: BubR1 (human (endogenous in HeLa)) (UniProt O60566)
Experiment: co-IP; as a1, the cells treated with the GSK3 inhibitor SB415286 (SB) and MG132 after Taxol; Mad2/BubR1 band intensities by ImageJ from three separate experiments, against DMSO control

UniProt O60566, sequence (O60566 whole entry): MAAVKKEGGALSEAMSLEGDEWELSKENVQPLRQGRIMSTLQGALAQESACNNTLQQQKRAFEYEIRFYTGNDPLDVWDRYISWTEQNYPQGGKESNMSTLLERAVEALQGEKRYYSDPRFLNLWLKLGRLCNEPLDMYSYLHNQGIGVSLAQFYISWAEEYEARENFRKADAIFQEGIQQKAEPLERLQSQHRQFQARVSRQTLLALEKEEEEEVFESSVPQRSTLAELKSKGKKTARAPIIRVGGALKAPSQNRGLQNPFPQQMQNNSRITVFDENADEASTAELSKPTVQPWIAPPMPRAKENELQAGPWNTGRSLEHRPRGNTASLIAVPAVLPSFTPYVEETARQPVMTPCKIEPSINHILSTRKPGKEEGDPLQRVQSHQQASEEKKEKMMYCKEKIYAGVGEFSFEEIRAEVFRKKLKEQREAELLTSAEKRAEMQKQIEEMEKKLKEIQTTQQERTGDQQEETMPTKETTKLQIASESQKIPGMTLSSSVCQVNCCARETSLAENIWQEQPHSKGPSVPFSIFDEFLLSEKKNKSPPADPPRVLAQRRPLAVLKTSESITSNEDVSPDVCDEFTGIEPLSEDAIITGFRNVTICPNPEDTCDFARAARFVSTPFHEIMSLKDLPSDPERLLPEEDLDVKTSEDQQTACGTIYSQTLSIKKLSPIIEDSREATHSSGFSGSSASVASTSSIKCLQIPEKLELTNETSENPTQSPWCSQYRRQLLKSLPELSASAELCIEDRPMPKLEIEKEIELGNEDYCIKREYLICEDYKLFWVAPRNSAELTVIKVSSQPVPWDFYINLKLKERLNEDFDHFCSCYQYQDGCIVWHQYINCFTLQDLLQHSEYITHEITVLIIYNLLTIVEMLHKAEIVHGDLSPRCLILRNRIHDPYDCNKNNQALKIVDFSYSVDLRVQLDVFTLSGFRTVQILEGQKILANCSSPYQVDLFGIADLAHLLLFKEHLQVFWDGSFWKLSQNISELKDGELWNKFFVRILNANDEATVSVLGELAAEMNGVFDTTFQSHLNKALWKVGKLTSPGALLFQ

## Mad2 (a stretch of the chain, sequence not shown) (natural protein; other documents disagree on this pair)
  percent decrease of the Mad2/BubR1 ratio in SB415286-treated cells against DMSO control: 75%
